Residues, ends and D or L forms follow the SMILES beside them.
Tested on: C. albicans
Assay: Peptide or protein/Fluconazole combination MIC and FICI

**Q.** Which “MIC in combination μg/ml” value does the source give for `CC[C@H](C)[C@H](NC(=O)[C@H](CCCNC(=N)N)NC(=O)[C@@H](NC(=O)[C@@H](NC(=O)[C@H](Cc1ccccc1)NC(=O)[C@@H](NC(=O)[C@H](CCCNC(=N)N)NC(=O)[C@H](CCCNC(=N)N)NC(=O)[C@H](CCCNC(=N)N)NC(=O)[C@H](Cc1ccccc1)NC(=O)CNC(=O)[C@H](CCCNC(=N)N)NC(=O)[C@H](CS)NC(=O)[C@H](CCCNC(=N)N)NC(=O)CNC(=O)CN)C(C)C)C(C)C)[C@@H](C)O)C(=O)N[C@@H](CS)C(N)=O` [GMA4C_V3A] (H-GGRCRGFRRRVFVTRIC-NH2; N-terminus assumed) here?
**A.** Its value is 2.9/8 μg/ml.
